In patent US7629130B2 (priority 2005, dated 2009):

Conditions: repeated cycles of freezing/thawing

B1: SdcA: SidC paralogue SdcA (72% identity on an amino acid level), GenBank AY504674 (protein)
chain: VMNMVDKIKFKEPERCEYLHIAKDNKVHILLPIVGGDEIGLDNTCETTGELLTFFYGKTHGGTKYSAEHHLNEYKKNLEDDIKAIGVQRKISPNAYEDLLKEKKERLEQIEKYIDLIKVLKEKFDEQREIDKLRTEGIPQLPSGVKEVIKSSENAFALRLSPDRPDSFTRFDDPLFSLKRNRSQYEAGGYQRATDGLGARLRSELLPPDKDTPIVFNKKSLKDKIVDSVLVQLDKDFNTKDGDRGQKFEDIKKLVLEEYKKIDSELQVDEDTYHQPLNLDYLENIACTLDDNSTAKDWVYGIIGATTEADYWPKKESESGTEKVSVFYEKQKEIKFESDTNTMSIKVQYLLAEINFYCKTNKLSDANFGEFFDKEPHATEVAKRVKEGLVQGAEIEPIIYNYINSHHAELGLTSELSSKQQEEITEKFTQRYHIIENSPHFDEFFVADPDKKGNIFSHQGRMSCHFLDFFARQTKGKYPLGDLAGHQEALQAGTSNRLHHKNEVVAQGYEKFDQFKKEVVKLLAESKPKELLDYLVATSPTGVPNYSMLSKETQNYIAYNRNWPAIQKELEKTTDIPENQKQDLLRLLSRNNLQHENLSAITWSKYSSKPLLDVELNKIAEGLDLTAKIYNEKRKSEWFKGSRNEARKTQCEELQRVSQEINALLQSESLTKSQVLEKVLNSIEALDKIDRDISAEYNLFKSTLQKEVQSFRDQLKDICQLDNYAFKSTKLDEIISLEMEEQFQMIKDPAVQQIVRDLPSHCHNNEVIEFFMTLNPEEAAKVASYLSLEYRELNKSTDKKTLLEQDIPKLFKEVNMELLSQLKQDSAVKEDVYEKFCQLADKIPPEHFTRNNIRKWSANPEKLEESNLGELLKSSEGSITEMARKYRETINEMTGRNESLRETVRNTI
modifications: L. pneumophila
  stability / PI(4)P-binding after cycles of shock freezing and thawing: stable and robustly bind PI(4)P even after cycles of shock freezing and thawing
